In PubChem BioAssay AID504832 (National Center for Advancing Translational Sciences (NCATS), 2011):
Among all 310,000 compounds or so, about 18,000 (5.8%) were called active. Inconclusive means that the source gave no clear call. Such entries were picked first, then a sample of the others. The call rests on the fitted dose curve; in most records, active means well fitted inhibition curve with a large enough effect; inconclusive means small, poorly fitted or top-dose-only effect, or another doubt; inactive means no such curve, though single readings can be large or run the other way. Potencies of inconclusive entries are left out as doubtful fits.

test: Primary qHTS for delayed death inhibitors of the malarial parasite plastid, 48 hour incubation; details: P. falciparum luciferase growth in erythrocytes; series mostly up to 28.7 µM
Outline: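 Here the parasites carry a stable luciferase gene and grow inside erythrocytes in Albumax-based RPMI medium with compound for one erythrocytic cycle. Activity is scored as loss of luminescent signal.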
Potency means the concentration at half of the fitted maximal effect; tags describe the fitted curve by direction and shape.

| SMILES | Potency |
| --- | --- |
| Cc1ccc(C(=O)Nc2cc(C(F)(F)F)ccc2N2CCCCC2)cc1[N+](=O)[O-] | active: 13.1 µM |
| c1ccc(Nc2nc(-c3ccccn3)cs2)cc1 | inactive |
| CCNC(=O)C(=O)N/N=C/c1cc([N+](=O)[O-])ccc1O | inconclusive [inhibitor, partial curve, poor fit] |
| Cc1ncoc1C(=O)N1CCCC(C(=O)c2ccc(-c3ccccc3)cc2)C1 (stereo not drawn) | inactive |
| O=C(COC(=O)c1cc(=O)[nH]c2ccccc12)c1cccs1 | inactive |
| C=CCn1c(O)c(N=NC(=S)Nc2cccc(C)c2)c2ccccc21 | active: 1.85 µM |
| COc1ccc(/C=C2\SC(=N)N(c3ccc(F)cc3)C2=O)cc1 | inconclusive [inhibitor, full curve] |
| COc1ccc(NCc2nc3ccccc3n2C)cc1 | inactive |
| OCCN=c1cc(-c2ccccc2)oc2ccc(Cl)cc12 | inconclusive [inhibitor, partial curve, poor fit] |
| O=c1[nH]c(/C(=N\O)c2ccccc2)no1 | inactive |
| CC1(C)Cc2c(cnn2-c2ccc(F)cc2)C(NC(=O)c2ccco2)C1 (stereo not drawn) | inactive |
| CCOC(=O)C1=Nc2ccccc2/C1=C\c1c(O)n(C)c(=O)n(C)c1=O | inconclusive [inhibitor, partial curve, poor fit] |
| COc1ccc(-c2csc3nc(-c4ccccc4OC)oc(=O)c23)cc1 | inconclusive [inhibitor, single point] |
| CCc1ccccc1N(CC(=O)NCc1ccco1)C(=O)CCC(=O)Nc1nccs1 | inconclusive [inhibitor, partial curve, poor fit] |
| COc1ccccc1-c1nnc2sc(C3CCCCC3)nn12 | active: 10.4 µM |
| COCCNC(=O)c1cccc(OC2CCN(C(C)COc3ccccc3)CC2)c1 (stereo not drawn) | inconclusive [inhibitor, single point] |
| Cc1noc(C)c1C(=O)Nc1sc(C)c(C)c1C#N | inconclusive [inhibitor, single point] |
| CCn1cc(C(=O)O)c(=O)c2cc(F)c(N3CCN(C(=S)Nc4ccccc4OC)CC3)cc21 | inconclusive [inhibitor, partial curve] |
| O=C(Nc1ccccc1)C(c1ccccc1)C1CCCC1 (stereo not drawn) | inconclusive [inhibitor, single point] |
| Nc1c2c(nc3ccccc13)CCN(Cc1ccccc1)C2 | inconclusive [inhibitor, single point] |
| COc1cc(C(=O)NCC(c2cccnc2)N2CCN(c3ccccc3)CC2)cc(OC)c1OC (stereo not drawn) | active: 13.1 µM |
| CC(C)c1ccc2[nH]c3c(c2c1)CCC/C3=N\NC(=O)c1ccncc1 | inconclusive [inhibitor, single point] |
| O=C(CSc1cccc[n+]1[O-])c1cc(Cl)ccc1Cl | inconclusive [inhibitor, partial curve, poor fit] |

| SMILES | Potency |
| --- | --- |
| CN1CCN(Cc2ccccc2Sc2ccccc2)CC1 | inconclusive [inhibitor, single point] |
| Cc1ccc(C)c(-n2nnnc2Sc2nc([N+](=O)[O-])nn2C)c1 | inconclusive [inhibitor, single point] |
| Cc1ccc(Cn2nc(C)c(C(=O)N3CCN(S(=O)(=O)/C=C/c4ccccc4)CC3)c2C)cc1 | active: 6.57 µM |
| CCOC(=O)c1nc2ccccc2c(=O)n1-c1ccc(C)cc1C | inconclusive [inhibitor, partial curve, poor fit] |
| O=C(NCCc1ccccc1)C1CCCN(c2cnccn2)C1 (stereo not drawn) | inactive |
| CCOC(=O)c1nn(-c2ccc(C)c(C)c2)c(=O)c2c(N)scc12 | inactive |
| COc1ccc(OCC(=O)Nc2ccc3c(c2)nc(CCn2ccccc2=O)n3C)cc1 | inconclusive [inhibitor, partial curve] |
| CCC(CC)NC(=O)c1oc2ccccc2c1COc1ccccc1 | active: 6.57 µM |
| COc1ccc(-n2cc(CNCCc3ncc(C)[nH]3)c(-c3ccccc3Cl)n2)cc1 | inactive |
| Cc1cc(NC(=O)CSc2nnc(C3COc4ccccc4O3)n2N)no1 (stereo not drawn) | inconclusive [inhibitor, single point] |
| Cc1cccc(N2CCN(S(=O)(=O)c3ccc4c(c3)CCCN4C(=O)C3CCC3)CC2C)c1 (stereo not drawn) | inconclusive [inhibitor, single point] |
| c1ccc(-c2ccccc2OCCCN2CCCCCC2)cc1 | inconclusive [inhibitor, partial curve, poor fit] |
| CCOC(=O)c1[nH]c2ccc(F)cc2c1NC(=O)c1cc(OC)c(OC)c(OC)c1 | inconclusive [inhibitor, partial curve] |
| CCOC(=O)N1CCN(C(=O)/C(=C/c2ccccc2OC)NC(=O)c2ccccc2)CC1 | inconclusive [inhibitor, partial curve] |
| CCC(=O)Nc1cccc(C(=O)N(Cc2ccccc2)Cc2ccccc2)c1 | inconclusive [inhibitor, partial curve, poor fit] |
| Cc1ccc(-n2[nH]c(C)c(/C=N/NC(=O)c3ccc(O)cc3O)c2=O)cc1 | inconclusive [inhibitor, partial curve] |
| CN(Cc1cccc(-n2cccn2)c1)C(=O)CCc1nnc(C2CCCCC2)o1 | inactive |
| CCCCn1c(=O)[nH]c(=O)c2c1nc(Cn1ncc(Cl)c(Cl)c1=O)n2CCC | inconclusive [inhibitor, single point] |
| COc1ccc(OC)c(N(C(=O)c2snc(C(N)=O)c2N)C(C(=O)NCC2CCCO2)c2ccc3ncccc3c2)c1 (stereo not drawn) | inconclusive [inhibitor, partial curve, poor fit] |
| COC(=O)CCCC1=CC2=CC(=O)C(C)(OC(=O)c3cccs3)C(=O)C2=CN1Cc1ccccc1 (stereo not drawn) | active: 13.1 µM |
| O=C(O)c1cc([N+](=O)[O-])cc2c1C=Cc1ccccc1O2 | inactive |
| COc1ccccc1-c1sc2ccccc2c1-c1ccc2c(c1)OCCO2 | inconclusive [inhibitor, partial curve] |
| COc1ccc(N2CCN(C3CCCCC3NS(=O)(=O)c3ccc(Cl)cc3)CC2)cc1 (stereo not drawn) | inconclusive [inhibitor, single point] |

| SMILES | Potency |
| --- | --- |
| CC1(C)O[C@@H]2C[C@H]3[C@@H]4CCC5=CC(=O)CC[C@]5(C)[C@@]4(F)[C@@H](O)C[C@]3(C)[C@]2(C(=O)CCl)O1 | active: 2.62 µM |
| Cc1ccccc1-c1cc(C(=O)Nc2sc(C)c(C)c2C(N)=O)c2ccccc2n1 | inconclusive [inhibitor, single point] |
| O=C1CC(C(=O)O)S/C(=N\NC(=O)c2ccccc2)N1 (stereo not drawn) | inactive |
| COC(=O)c1ccc(C2SCC(=O)N2Cc2ccccc2)cc1 (stereo not drawn) | inactive |
| CN(c1ccccc1)S(=O)(=O)c1ccc(Cl)c(C(=O)Nc2ccccc2N2CCOCC2)c1 | inconclusive [inhibitor, partial curve] |
| NC(=S)N/N=C/C=C/c1ccccc1 | inconclusive [inhibitor, single point] |
| Cc1ccc(C)c(N2C(=O)CC(Cc3ccc(Br)cc3)C2=O)c1 (stereo not drawn) | inconclusive [inhibitor, full curve, poor fit] |
| CSCCC(NC(=O)c1ccc(Cl)cc1Cl)C(=O)OC1CCCCC1=O (stereo not drawn) | inconclusive [inhibitor, partial curve, poor fit] |
| CCOc1cc(-c2nc3cc(C)ccn3c2NCC2CCCO2)ccc1O (stereo not drawn) | inconclusive [inhibitor, partial curve] |
| CCOC(=O)N1CC=C2C(C#N)=C(N)C(C#N)(C#N)[C@H](c3cccs3)[C@H]2C1 | inconclusive [inhibitor, single point] |
| O=C(c1cnn2c(C(F)F)cc(-c3ccccc3)nc12)N1CCN(Cc2ccc3c(c2)OCO3)CC1 | active: 4.65 µM |
| COc1ccc(NC(=O)c2cc(CC(C)C)nc3ccccc23)cc1 | inconclusive [inhibitor, single point] |
| Cc1cc(C(F)F)n2nc(C(=O)Nc3ccc(S(=O)(=O)N4CCCC4)cc3)nc2n1 | inactive |
| O=C(Nc1ccc2c(c1)OCO2)O[C@@H]1C[C@H]2CCC(=O)N3CC[C@@H](C1)[C@@H]23 | inconclusive [inhibitor, partial curve, poor fit] |
| CCCc1ccc2oc(C(=O)N3CCC(N4CCCC(O)C4)CC3)c(C)c2c1 (stereo not drawn) | inconclusive [inhibitor, single point] |
| Cc1cc(C)c(S(=O)(=O)c2ccccc2Cl)c(Cl)n1 | inconclusive [inhibitor, single point] |
| CCCn1c(SCC(=O)Nc2ccccc2C(=O)OC)nc2c1c(=O)n(C)c(=O)n2C | inactive |
| CCN(CC)C(=O)CN(c1cc(Cl)ccc1OC)S(=O)(=O)c1ccc(C)c([N+](=O)[O-])c1 | inconclusive [inhibitor, partial curve, poor fit] |
| CN(C)c1cccc2c1c(NC(=O)Nc1ccc(F)cc1F)nn2C | inactive |
| N#Cc1cc(C(=O)c2cc(Br)ccc2O)cn(C2CC2)c1=O | inconclusive [inhibitor, partial curve, poor fit] |
| Cc1ccn(-c2cc(O)c(-n3ccc(C)n3)cc2O)n1 | inactive |
| CC(=O)NC1(c2cccc(F)c2)CCN(CC(=O)NC2CCCCC2)CC1 | inconclusive [inhibitor, partial curve, poor fit] |
